Laboratory results: the BET-seq Pho4 binding data (Le et al. 2018)
Some of the results follow. The energies were worked out here from pooled read counts, against the library average; single values are noisy.

Each sequence was assayed against T1, Pho4 (S. cerevisiae) (UniProt P07270) (assay: relative binding free energy (BET-seq); higher = weaker binding). Settings: reference: library average.
T1 sequence: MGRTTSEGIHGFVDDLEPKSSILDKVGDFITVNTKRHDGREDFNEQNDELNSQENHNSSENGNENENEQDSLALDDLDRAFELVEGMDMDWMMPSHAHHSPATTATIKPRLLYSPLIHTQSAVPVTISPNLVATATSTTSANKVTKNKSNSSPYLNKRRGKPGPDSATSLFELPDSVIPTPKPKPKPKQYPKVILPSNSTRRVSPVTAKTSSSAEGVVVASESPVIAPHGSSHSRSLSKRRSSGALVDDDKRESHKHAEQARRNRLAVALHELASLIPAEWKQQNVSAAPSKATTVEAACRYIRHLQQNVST

Row | Sequence | relative binding free energy
1 | CTTGTCACGTGGTTCT | 0.09 kcal/mol
2 | TTCTACACGTGGCATG | 0.28 kcal/mol
3 | GCGGCCACGTGTTTGG | 0.09 kcal/mol
4 | CATGCCACGTGTTGGG | 0.03 kcal/mol
5 | GGTGGCACGTGGAACT | 0.01 kcal/mol
6 | TTCTTCACGTGGCGTG | 0.19 kcal/mol
7 | GTTTTCACGTGAAGTT | 0.36 kcal/mol
8 | AAGCGCACGTGGATGG | -0.01 kcal/mol
9 | CTTAGCACGTGTTGAT | 0.05 kcal/mol
10 | TAAAGCACGTGTAGTA | 0 kcal/mol
11 | AGCTTCACGTGTATGT | 0.23 kcal/mol
12 | AGTGGCACGTGCTTGG | -0.15 kcal/mol
13 | GGGTTCACGTGGCTCT | 0.22 kcal/mol
14 | AGTATCACGTGTCGTT | 0.1 kcal/mol
15 | CGTGGCACGTGCTAGT | -0.06 kcal/mol
16 | TTTTTCACGTGACGGG | 0.45 kcal/mol
17 | CGTTTCACGTGTGATA | 0.24 kcal/mol
18 | TTGTACACGTGTAATG | 0.13 kcal/mol
19 | GTTGTCACGTGTCGGG | 0.1 kcal/mol
20 | TTTGTCACGTGGCCAT | 0.07 kcal/mol

Row | Sequence | relative binding free energy
21 | GCTGTCACGTGAGGAG | 0.35 kcal/mol
22 | TGCTTCACGTGTATGT | 0.22 kcal/mol
23 | TTCTTCACGTGCTATG | 0.33 kcal/mol
24 | CGTTGCACGTGGTAGG | -0.09 kcal/mol
25 | TTATTCACGTGCATGT | 0.26 kcal/mol
26 | GTGGTCACGTGTTGTT | 0.11 kcal/mol
27 | ATTTTCACGTGGTATA | 0.21 kcal/mol
28 | GGGCACACGTGTGGCA | 0.16 kcal/mol
29 | TGGGGCACGTGGCTTC | -0.16 kcal/mol
30 | TGATGCACGTGTGGGA | 0.01 kcal/mol
31 | GTAGGCACGTGAGCTG | 0.22 kcal/mol
32 | TAGCACACGTGTGGTA | 0.07 kcal/mol
33 | CAATGCACGTGGATGG | -0.09 kcal/mol
34 | TGAACCACGTGGGGGA | -0.24 kcal/mol
35 | AAGGACACGTGGATTT | 0.13 kcal/mol
36 | GCCGGCACGTGAGGGT | 0.25 kcal/mol
37 | GGTTGCACGTGTGAGG | 0.13 kcal/mol
38 | CTTTACACGTGAAGTG | 0.23 kcal/mol
39 | TGCTGCACGTGTTGAT | 0.03 kcal/mol
40 | TAGGACACGTGAGCTG | 0.21 kcal/mol

Row | Sequence | relative binding free energy
41 | GTCGGCACGTGTATCG | 0.08 kcal/mol
42 | TGGGACACGTGTAGTT | 0.15 kcal/mol
43 | TCTATCACGTGTAGGT | 0.09 kcal/mol
44 | TTGGACACGTGTTGAC | 0.14 kcal/mol
45 | GATGACACGTGCGGGG | 0.07 kcal/mol
46 | GGTGTCACGTGGGCCT | -0.11 kcal/mol
47 | TTGGACACGTGGTATC | -0.02 kcal/mol
48 | AATGGCACGTGTTTGC | -0.08 kcal/mol
49 | TTTTACACGTGGGCGA | 0.14 kcal/mol
50 | TGGATCACGTGCGTGT | -0.04 kcal/mol
51 | TTGGACACGTGGAAGA | 0.06 kcal/mol
52 | TGGGGCACGTGGTTGC | -0.14 kcal/mol
53 | GTTTGCACGTGACAGG | 0.29 kcal/mol
54 | TTATGCACGTGGATTA | 0.02 kcal/mol
55 | TTCAGCACGTGTGAAT | -0.03 kcal/mol
56 | TTAGTCACGTGAATGC | 0.32 kcal/mol
57 | TCAATCACGTGGTTGT | 0.07 kcal/mol
58 | GGGGGCACGTGTATAC | 0.06 kcal/mol
